Data: the supplement of paper PMC11741623
This is one part of the list. Interaction screen of human proteins with wild-type SARS-CoV-2 proteins by split-DHFR complementation in yeast, 1 µg/mL methotrexate. Value = fitness of the pair (three or more lineages) minus that of the viral protein without a human partner, on a scale set by negative (0) and fused positive (1) controls, mean of up to three cultures; higher = more likely to interact. Active = false discovery rate below 0.05 (one-sided t-test) in at least one culture. Nearly all pairs are not hits, and differences among them are mostly noise (correlation between cultures about 0.3); most hits were seen in one culture only. Human sequences are the Swiss-Prot entries looked up by gene name; the clone may be another isoform. NSP2 values were corrected by the authors for a growth advantage. Listed are human proteins with a hit and a random twelfth of the others.

B1: SRP14, P37108 (protein)
chain: MVLLESEQFLTELTRLFQKCRTSGSVYITLKKYDGRTKPIPKKGTVEGFEPADNKCLLRATDGKKKISTVVSSKEVNKFQMAYSNLLRANMDGLKKRDKKNKTKKTKAAAAAAAAAPAAAATAPTTAATTAATAAQ
B2: TMPRSS2, O15393 (protein)
chain: MALNSGSPPAIGPYYENHGYQPENPYPAQPTVVPTVYEVHPAQYYPSPVPQYAPRVLTQASNPVVCTQPKSPSGTVCTSKTKKALCITLTLGTFLVGAALAAGLLWKFMGSKCSNSGIECDSSGTCINPSNWCDGVSHCPGGEDENRCVRLYGPNFILQVYSSQRKSWHPVCQDDWNENYGRAACRDMGYKNNFYSSQGIVDDSGSTSFMKLNTSAGNVDIYKKLYHSDACSSKAVVSLRCIACGVNLNSSRQSRIVGGESALPGAWPWQVSLHVQNVHVCGGSIITPEWIVTAAHCVEKPLNNPWHWTAFAGILRQSFMFYGAGYQVEKVISHPNYDSKTKNNDIALMKLQKPLTFNDLVKPVCLPNPGMMLQPEQLCWISGWGATEEKGKTSEVLNAAKVLLIETQRCNSRYVYDNLITPAMICAGFLQGNVDSCQGDSGGPLVTSKNNIWWLIGDTSWGSGCAKAYRPGVYGNVMVFTDWIYRQMRADG

Each binder was assayed against SARS-CoV-2 E (assay: yeast fitness gain over the viral ORF with no human partner (scaled fitness); higher = more likely to interact).
Experimental: (§1)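 Split mouse DHFR complementation in pooled diploid yeast: human ORFeome clones carry one fragment and viral ORFs the other; barcoded lineages compete in 1 µg/mL methotrexate and fitness is read by barcode sequencing in up to three cultures.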

Row | Binder | yeast fitness gain
1 | B1 | inactive: 0.0357
2 | B2 | inactive: -0.0173

What follows are binders tested against SARS-CoV-2 M in the same assay as above.
Experimental: as §1

Row | Binder | yeast fitness gain
3 | B1 | inactive: -0.0251
4 | B2 | inactive: 0.046

What follows are binders tested against SARS-CoV-2 N in the same assay as above.
Experimental: as §1

Row | Binder | yeast fitness gain
5 | B1 | inactive: -0.0658
6 | B2 | inactive: -0.123

What follows are binders tested against SARS-CoV-2 NSP1 in the same assay as above.
Experimental: as §1

Row | Binder | yeast fitness gain
7 | B1 | inactive: 0.0533
8 | B2 | inactive: -0.0465

These binders were tested against SARS-CoV-2 NSP10 in the same assay as above.
Experimental: as §1

Row | Binder | yeast fitness gain
9 | B1 | inactive: 0.043
10 | B2 | inactive: 0.00756

These binders were tested against SARS-CoV-2 NSP12 in the same assay as above.
Experimental: as §1

Row | Binder | yeast fitness gain
11 | B1 | inactive: 0.0567
12 | B2 | inactive: 0.04

The binders below were run against SARS-CoV-2 NSP13 in the same assay as above.
Experimental: as §1

Row | Binder | yeast fitness gain
13 | B1 | inactive: -0.003
14 | B2 | inactive: 0.0227

Each binder was assayed against SARS-CoV-2 NSP15 in the same assay as above.
Experimental: as §1

Row | Binder | yeast fitness gain
15 | B1 | inactive: 0.0342
16 | B2 | inactive: 0.0337

These binders were tested against SARS-CoV-2 NSP16 in the same assay as above.
Experimental: as §1

Row | Binder | yeast fitness gain
17 | B1 | inactive: -0.0186
18 | B2 | inactive: 0.0546

These binders were tested against SARS-CoV-2 NSP2 in the same assay as above.
Experimental: as §1

Row | Binder | yeast fitness gain
19 | B1 | inactive: -0.168
20 | B2 | inactive: -0.127

The binders below were run against SARS-CoV-2 NSP5 in the same assay as above.
Experimental: as §1

Row | Binder | yeast fitness gain
21 | B1 | inactive: -0.0378
22 | B2 | inactive: 0.0357

Each binder was assayed against SARS-CoV-2 NSP6 in the same assay as above.
Experimental: as §1

Row | Binder | yeast fitness gain
23 | B1 | inactive: -0.0304
24 | B2 | inactive: -0.0166

Each binder was assayed against SARS-CoV-2 NSP7 in the same assay as above.
Experimental: as §1

Row | Binder | yeast fitness gain
25 | B1 | inactive: -0.0936
26 | B2 | inactive: 0.0713

The binders below were run against SARS-CoV-2 NSP8 in the same assay as above.
Experimental: as §1

Row | Binder | yeast fitness gain
27 | B1 | inactive: -0.0432
28 | B2 | inactive: 0.0313

Each binder was assayed against SARS-CoV-2 NSP9 in the same assay as above.
Experimental: as §1

Row | Binder | yeast fitness gain
29 | B1 | inactive: 0.00538
30 | B2 | inactive: -0.0642

These binders were tested against SARS-CoV-2 ORF10 in the same assay as above.
Experimental: as §1

Row | Binder | yeast fitness gain
31 | B1 | inactive: 0.0221
32 | B2 | inactive: 0.0578

Each binder was assayed against SARS-CoV-2 ORF3A in the same assay as above.
Experimental: as §1

Row | Binder | yeast fitness gain
33 | B1 | inactive: -0.0742
34 | B2 | inactive: -0.003

The binders below were run against SARS-CoV-2 ORF3B in the same assay as above.
Experimental: as §1

Row | Binder | yeast fitness gain
35 | B1 | inactive: 0.0172
36 | B2 | inactive: 0.0187

The binders below were run against SARS-CoV-2 ORF6 in the same assay as above.
Experimental: as §1

Row | Binder | yeast fitness gain
37 | B1 | inactive: 0.0149
38 | B2 | inactive: -0.0162

What follows are binders tested against SARS-CoV-2 ORF7A in the same assay as above.
Experimental: as §1

Row | Binder | yeast fitness gain
39 | B1 | inactive: -0.057
40 | B2 | inactive: 0.0134

These binders were tested against SARS-CoV-2 ORF7B in the same assay as above.
Experimental: as §1

Row | Binder | yeast fitness gain
41 | B1 | inactive: 0.0115
42 | B2 | inactive: -0.00222

These binders were tested against SARS-CoV-2 ORF8 in the same assay as above.
Experimental: as §1

Row | Binder | yeast fitness gain
43 | B1 | inactive: -0.0279
44 | B2 | inactive: 0.0268

What follows are binders tested against SARS-CoV-2 ORF9B in the same assay as above.
Experimental: as §1

Row | Binder | yeast fitness gain
45 | B1 | inactive: 0.036
46 | B2 | inactive: 0.0135

These binders were tested against SARS-CoV-2 ORF9Bwu (the 73-codon ORF) in the same assay as above.
Experimental: as §1

Row | Binder | yeast fitness gain
47 | B1 | inactive: -0.0135
48 | B2 | inactive: 0.0337

These binders were tested against SARS-CoV-2 S in the same assay as above.
Experimental: as §1

Row | Binder | yeast fitness gain
49 | B1 | inactive: 6e-05
50 | B2 | inactive: 0.00824

Each binder was assayed against SARS-CoV-2 NSP14 in the same assay as above.
Experimental: as §1

Row | Binder | yeast fitness gain
51 | B2 | inactive: -0.00948

What follows are binders tested against SARS-CoV-2 NSP4 in the same assay as above.
Experimental: as §1

Row | Binder | yeast fitness gain
52 | B2 | inactive: -0.112
